The source of these data is PubChem BioAssay AID463173 (ICCB-Longwood Screening Facility, Harvard Medical School, 2010).

Structures are written as SMILES. Hit rate of the full screen: of about 52,000 compounds, about 4,300 (8.3%) were called active. Cut-off read from the data, not from the text of the source: active = survival mostly below about 52% (no sharp cut-off); inactive = mostly above about 56%. The list shows a part of the results.

The experiment deals with DeltatarO mutant. Briefly: growth inhibition of S. aureus wild type versus tarO mutant, primary screen, teichoic acid synthesis inhibitors, RN4220, OD600 (AID 463173). The following applies: OD600, 18 h, active compounds read low, screened at 18.75 µg/mL (by protocol).
For `O=C(NCc1ccco1)c1cc(-c2ccccc2)on1`, the survival was inactive: 85%. Turning to `CCCOc1ccc(NC(=O)CC2C(=O)N(c3cccc(C)c3)C(=O)N2CCc2ccncc2)cc1` (stereo not drawn), the survival is inactive: 107%. Regarding `COc1ccc(Nc2nc3c(S(=O)(=O)c4ccccc4)nnn3c3ccc(Cl)cc23)cc1OC`, the survival is inactive: 117%. The result for `CCOC(=O)c1cccc(NC(=O)c2cc3c(=O)n(Cc4cccnc4)ccc3nc2C)c1` reads inactive: 118%. For `Cc1cccc(-c2nc(N3CCN(c4ccc(F)cc4)CC3)c3ccccc3n2)c1` the value was inactive: 54%; for `CCCCOc1ccccc1NC(=O)Cn1c(-c2cncs2)nc2ccccc21`, active: 49%; for `COc1ccc(OC)c(-n2cnc3cc(C(=O)NC4CCCC4)ccc32)c1`, inactive: 96%. The result for `O=C(Nc1nnc(S(=O)(=O)N2CCCC2)s1)c1ccc(F)cc1` reads inactive: 111%; that for `O=C(NC1CC(=O)N(c2ccccc2)C1)c1cc2ccccc2o1` (stereo not drawn), inactive: 89%. Turning to `Cc1oc(-c2ccccc2)nc1CNS(=O)(=O)c1ccc(Cl)cc1`, the survival was inactive: 85%. The result for `O=C(O)c1ccccc1C1=Nc2ccc(O)cc2Oc2cc(O)ccc21` reads inactive: 89%; that for `Cc1ccc(-n2ncc3c(NCCCn4ccnc4)ncnc32)cc1`, inactive: 79%; that for `CC1CCCC(C)N1C(=O)CN1CCC(N2CCCCC2)CC1` (stereo not drawn), inactive: 94%. For `Cc1ccc(NC(=O)c2cc(-c3cccs3)on2)cc1C` the value was active: 45%; for `CCN1CCN(CCCNC(=O)c2cnn(-c3ccc(C)cc3)c2C2CCN(C(=O)OC(C)(C)C)CC2)CC1`, inactive: 86%; for `CCCCCn1c(=O)[nH]c2cc(C(=O)N3CCN(c4ccccc4F)CC3)ccc2c1=O`, inactive: 87%. With `COc1cc(-c2nc3cccc(C)n3c2Nc2ccc3c(c2)OCCO3)ccc1O`, the survival was inactive: 76%. For `COc1ccccc1CNC(=O)c1cccc(NC(=O)N2CCSc3ncccc32)c1` the value was inactive: 78%; for `CCCCOC(=O)c1ccc(NC(=O)CSc2nc3c(c(=O)[nH]2)CCC3)cc1`, inactive: 55%; for `CC(=O)c1ccc(N2CCN(c3ncnc4onc(-c5ccc(Cl)cc5)c34)CC2)cc1`, inactive: 74%. For `NC(=O)CC1SC(N)=NC1=O` (stereo not drawn) the value was inactive: 80%.

Take `CCc1c(C)nc2[nH]nc(NC(=O)C(F)(F)F)n2c1=O`: the survival was inactive: 101%. For `COc1cc(N(C(=O)c2cnccn2)C(C(=O)NCc2ccccc2)c2cccs2)ccc1-n1cnnn1` (stereo not drawn) the value was inactive: 100%; for `Cc1c(C(=O)NCc2ccc(F)cc2)sc2nc(-c3ccccc3)cn12`, inactive: 100%; for `Cc1nnc(N2C(=O)c3oc4ccccc4c(=O)c3C2c2ccc(F)cc2)s1` (stereo not drawn), inactive: 63%. For `COC(=O)c1c(-c2ccc(Cl)cc2)noc1N1CCN(c2cccc(OC)c2)CC1` the value was inactive: 83%; for `CCOc1ccccc1C(=O)NCC(c1ccc(N(C)C)cc1)N1CCc2ccccc21` (stereo not drawn), inactive: 102%. As to `Oc1c(C(c2ccc(Cl)cc2)N2CCCC2)sc2nc(-c3ccco3)nn12` (stereo not drawn), the survival was inactive: 49%.

Regarding `CN(C(=O)c1cnn2c(C(F)F)cc(-c3ccccc3)nc12)C1CCCCC1`, the survival was inactive: 84%.

For `COc1ccc(S(=O)(=O)NCCS(=O)(=O)N2CCN(c3ccccc3F)CC2)cc1`, the survival was inactive: 117%. For `COc1cccc(-n2c(SCC(=O)Nc3ccc(F)cc3F)nc3c([nH]c4ccccc43)c2=O)c1` the value was inactive: 99%.

In the case of `Cc1sc2ncn(C(C)C(=O)OC3CCCCC3)c(=O)c2c1C` (stereo not drawn), the survival is inactive: 91%. The result for `O=C(NCc1ccccc1)C1CCC(CNS(=O)(=O)c2ccc(Br)s2)CC1` (stereo not drawn) reads inactive: 77%; that for `CC1CCc2nn(CC(=O)Nc3cccc(C(F)(F)F)c3)c(=O)cc2C1` (stereo not drawn), inactive: 98%; that for `COc1cc(NC(=O)Cn2c(=O)n(C(C)C)c(=O)c3oc4ccccc4c32)cc(OC)c1`, active: 47%. The result for `Cn1c(C(=O)NCc2ccc3c(c2)OCO3)cc2sccc21` reads inactive: 88%.

Turning to `O=C(Nc1cccnc1Cl)c1cc(-c2ccc(Cl)cc2)on1`, the survival is inactive: 57%.

Regarding `CCc1ccccc1N1CC(c2nc3ccccc3n2Cc2cccc(C)c2)CC1=O` (stereo not drawn), the survival is inactive: 66%. The result for `O=C(Nc1sc2c(c1C(=O)NCc1ccccc1)CCCC2)c1cc(=O)c2cc(Cl)ccc2o1` reads inactive: 49%; that for `N#Cc1ccccc1Cn1nnc2c(=O)[nH]c(C3CCCN(S(=O)(=O)c4ccc(F)cc4)C3)nc21` (stereo not drawn), inactive: 101%; that for `O=C(Nc1nc2nc(-c3ccccc3)cc(=O)n2[nH]1)c1ccc(F)cc1`, inactive: 68%. The result for `COc1ccc(CNc2ccc(C)c(C)c2)c(OC)c1OC` reads inactive: 93%. `Cc1ccc(N2C(=O)CC(N3CCc4ccccc43)C2=O)cc1Cl` (stereo not drawn): the survival was inactive: 84%. As for `CCOc1ccccc1N1CC(c2nc3ccccc3n2CCCOc2ccccc2OC)CC1=O` (stereo not drawn), the survival was inactive: 76%. For `CC(C)n1c(=S)[nH]c2c1c(=O)[nH]c(=O)n2C` the value was inactive: 64%.

Consider `CC1(C)OC(=O)C(=Cc2ccc(-c3ccc(S(N)(=O)=O)cc3)o2)C(=O)O1`, for which the survival was inactive: 82%.

For the compound `CC(=O)c1ccc(NC(=O)CCc2c(C)nn(-c3ccc4nncn4n3)c2C)cc1`, the survival was inactive: 91%. For `CCOc1ccc(CCNS(=O)(=O)c2c(C)nc3sc(C)cn3c2=O)cc1OCC` the value was inactive: 58%.

For the compound `CSc1ccc(CCNC(=O)c2cc3n(n2)CCCN(Cc2ccc(C)cc2)C3=O)cc1`, the survival was inactive: 80%. The result for `CC(C)(C)C(=O)NC1CCN(CC(=O)N2CCCCCC2)CC1` reads inactive: 101%; that for `CCC1CN(C(=O)N2CCC(C(=O)NCCOC)CC2)c2ccccc2O1` (stereo not drawn), inactive: 86%.

Regarding `Cc1ccc(NC(=O)CCS(=O)(=O)c2ccc3nc(C)sc3c2)cc1`, the survival is active: 34%.

`CCc1ccc(NC(=O)Cn2nnc(C(=O)NCc3ccco3)c2N)cc1`: the survival was inactive: 95%. The result for `Cc1ccccc1C(=O)Nc1nnc(SCc2cc(=O)c3c(C)ccc(C)c3[nH]2)s1` reads inactive: 102%; that for `CC1CCN(S(=O)(=O)c2cc(C(=O)NCc3ccc(F)cc3)n(C)c2)CC1`, inactive: 80%; that for `O=C1C(c2ccc(F)cc2)N(CCc2ccccc2)C(=O)CN1C1CCCCC1` (stereo not drawn), inactive: 82%. For `CNC(=O)c1cc2n(n1)CCCN(Cc1ccc(F)cc1)C2=O` the value was inactive: 73%; for `CC(C)c1ccc(C(=O)Nc2cccc3cccnc23)cc1`, active: -1%.
